# Measured values taken from publication PMC4242493.
# The list shows a part of the results. The list includes weakly bound sequences.
# Target: MaxL homodimer (UniProt P61244)
# Assay: universal protein-binding microarray (PBM)
# Conditions: PBS-based mixture, 10 nM His-tagged protein dimer, 2% milk, 200 ng/uL BSA, 50 ng/uL salmon testes DNA, 0.02% TX-100; detection with Alexa 488 anti-His …; high values mean tight binding; most listed sequences are background and not binding sites; double strand, one strand shown
# Sequence of UniProt P61244 (P61244 whole entry): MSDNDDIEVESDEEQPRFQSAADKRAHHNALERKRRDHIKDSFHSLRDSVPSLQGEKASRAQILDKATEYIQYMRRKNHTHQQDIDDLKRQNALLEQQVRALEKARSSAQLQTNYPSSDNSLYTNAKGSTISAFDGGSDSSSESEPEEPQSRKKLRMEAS
row,Sequence,binding signal (normalized occupancy)
1,CCTCAGTA,0.0673
2,ACCCTCCC,0.0812
3,AGAGTACG,0.0711
4,CGTAGATC,0.0785
5,AGCAAGAG,0.0711
6,CCTATTAA,0.0743
7,CGTGCTAA,0.0881
8,AGTAAATA,0.073
9,GCATAAAC,0.0764
10,GACACGGA,0.0754
11,CCGCGCCA,0.0754
12,ACCGCTAC,0.0748
13,TACAAGTA,0.0813
14,TCACTAAA,0.0781
15,TAAAACCA,0.0783
16,CCGCTTAA,0.0692
17,CTGATGTA,0.0796
18,AATATGAA,0.0804
19,CCAAGTTA,0.0778
20,ACCAAGCA,0.081
21,GAGCCCTA,0.0678
22,CTCCTTAA,0.0723
23,AAGTCCCT,0.0687
24,AAAAACAC,0.0787
25,GAAAATAA,0.0739

row,Sequence,binding signal (normalized occupancy)
1,AAAGCTAC,0.0713
2,ATACGAGG,0.084
3,CCTATAAA,0.0756
4,AGCGCTGC,0.068
5,ACGTTGCT,0.0755
6,CTCCCTAC,0.0784
7,CGACAAAA,0.0733
8,CATACCCA,0.079
9,GAAGCAAA,0.0716
10,AAGCCTTG,0.0708
11,ATATTGTC,0.0781
12,CAGGAACA,0.0782
13,GAAGACAC,0.0758
14,ACCAACCA,0.0767
15,ATGGAAAT,0.084
16,AACACGGA,0.0756
17,CAGCATTC,0.0775
18,CGACGGGC,0.0722
19,CATGCTCA,0.099
20,GATTTCTA,0.0702
21,AATAACCG,0.0777
22,AAGCGTAC,0.0746
23,GAGAGCCA,0.074
24,AGCAAACT,0.0759
25,ACTCTAGG,0.071

row,Sequence,binding signal (normalized occupancy)
1,AATAGTGT,0.0804
2,CAGCGATG,0.0775
3,CACATGCC,0.134
4,AGGGCGTC,0.0752
5,CTCTCTAA,0.0677
6,GGATGTAA,0.0766
7,AACTTGTC,0.0708
8,ATGTTTTG,0.0773
9,ACCGCGGT,0.0722
10,GGTGTCTA,0.0774
11,GGGCTTAC,0.0714
12,GCGCATTA,0.0762
13,AAGCTACA,0.0711
14,CCAATCGC,0.0747
15,ATTCTGCC,0.0687
16,CGTGGACC,0.0747
17,CCGGACCG,0.0658
18,ATCTCGAC,0.0735
19,CGACTACA,0.0812
20,AACCCGCC,0.075
21,CGCCCGCC,0.0709
22,GCAAAAGA,0.0674
23,ATATGGCA,0.098
24,AAGCTGCC,0.0711
25,GACATGTC,0.0872

row,Sequence,binding signal (normalized occupancy)
1,ACGGGAAG,0.0801
2,CATCCAGC,0.0758
3,CGTATTCA,0.0748
4,CAGACGGG,0.0705
5,CACCTAAC,0.0738
6,TAAGTATA,0.0772
7,ACGTATGC,0.0778
8,ACAGCCGC,0.0693
9,CTGGCTGA,0.0689
10,ACGAGCAA,0.0809
11,AAGAATTC,0.0705
12,AATGCGGA,0.0802
13,CTTGGATC,0.0746
14,CCCCTGAA,0.0781
15,CTGTTAAG,0.0755
16,ATAGTTTC,0.0746
17,AACTCCAG,0.0726
18,GCCCTGTA,0.0736
19,CCTACTCA,0.0764
20,AATTCTGA,0.0736
21,CACGTCTC,0.0782
22,CTTCGTAA,0.0744
23,GCTTTACA,0.0705
24,AGGACGAA,0.0655
25,CACAACCA,0.0825

row,Sequence,binding signal (normalized occupancy)
1,CCCAATCG,0.0745
2,AATTAGGT,0.0727
3,CTTACGCC,0.0728
4,AGCGACTA,0.0707
5,GGATAGAC,0.0769
6,CGACTAAA,0.0736
7,GAGAGACA,0.0729
8,GGGAGTAA,0.0769
9,CAAGCGCA,0.0772
10,ATCGTCGC,0.0734
11,AAGACCTT,0.0739
12,TCTGGACA,0.0737
13,ATTATTGG,0.0718
14,ATCAGAGG,0.0694
15,CTAACGGC,0.07
16,TCCATGGA,0.0757
17,AGCCGCAA,0.0645
18,TCTTTCCA,0.0762
19,CTCCACCA,0.075
20,CTCGGCTC,0.0643
21,GACGGAAA,0.0737
22,AGTCGTTG,0.0759
23,AATCACCT,0.0853
24,GAACACGC,0.108
25,TCACGCCA,0.0851

row,Sequence,binding signal (normalized occupancy)
1,AATGTTCA,0.0776
2,AGTTAAGG,0.0713
3,GCTCCCAA,0.0669
4,GAGAGGGA,0.0743
5,CCACTGGC,0.0688
6,CAAGACAA,0.0766
7,TAGAATCA,0.0767
8,GCGCTTAA,0.0733
9,CACAGGTG,0.0857
10,CTGGGATC,0.0733
11,ACTCCAAG,0.0736
12,TAGGCATA,0.0735
13,GCAGGGGA,0.0757
14,GTTCACCA,0.0729
15,GGAATGAA,0.0745
16,GGAGTTCA,0.075
17,TCTCAGCA,0.076
18,AACCGCGC,0.0744
19,TCCGCTCA,0.0723
20,AATTCGCT,0.0735
21,ATCCCCAG,0.0781
22,AGAACACA,0.0789
23,CTTTGCGC,0.0698
24,CCACCGCC,0.075
25,ACCGGAGC,0.0658

row,Sequence,binding signal (normalized occupancy)
1,GATACTGA,0.0736
2,CGCGACGA,0.0728
3,CTAACATA,0.0839
4,AAAAGTTC,0.076
5,GCGGACGA,0.0691
6,ACTTTATA,0.0812
7,CCTCTGAA,0.0722
8,TAAGCACA,0.0818
9,CCGGCCCG,0.0669
10,CATAACTA,0.0819
11,GCCCATCC,0.0737
12,ACTCTCCC,0.0751
13,GTACCATA,0.0827
14,CTATGTTC,0.0761
15,GATATGTA,0.089
16,CATGACAC,0.0945
17,AACTAATT,0.0744
18,GCGACTGA,0.0657
19,ACCCAGTA,0.0749
20,GACAACGC,0.0763
21,GCGTTTTA,0.0724
22,CAGCGTGA,0.104
